Data as given in publication PMC4336329 (PLoS ONE, 2015).
Screen size: about 310,000 compounds; about 14,000 (4.5%) showed an effect of 50% or more. The effect is printed as a negative number. Some of the results follow.

The compounds below were run against human ether-à-go-go-related gene (hERG) potassium channel (human, UniProt Q12809) (assay: primary screen, population patch clamp on CHO cells stably expressing hERG).
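Further: peak tail current of the secondary pulse compared with the same well before compound.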

human ether-à-go-go-related gene (hERG) potassium channel, sequence (Q12809 whole entry, looked up): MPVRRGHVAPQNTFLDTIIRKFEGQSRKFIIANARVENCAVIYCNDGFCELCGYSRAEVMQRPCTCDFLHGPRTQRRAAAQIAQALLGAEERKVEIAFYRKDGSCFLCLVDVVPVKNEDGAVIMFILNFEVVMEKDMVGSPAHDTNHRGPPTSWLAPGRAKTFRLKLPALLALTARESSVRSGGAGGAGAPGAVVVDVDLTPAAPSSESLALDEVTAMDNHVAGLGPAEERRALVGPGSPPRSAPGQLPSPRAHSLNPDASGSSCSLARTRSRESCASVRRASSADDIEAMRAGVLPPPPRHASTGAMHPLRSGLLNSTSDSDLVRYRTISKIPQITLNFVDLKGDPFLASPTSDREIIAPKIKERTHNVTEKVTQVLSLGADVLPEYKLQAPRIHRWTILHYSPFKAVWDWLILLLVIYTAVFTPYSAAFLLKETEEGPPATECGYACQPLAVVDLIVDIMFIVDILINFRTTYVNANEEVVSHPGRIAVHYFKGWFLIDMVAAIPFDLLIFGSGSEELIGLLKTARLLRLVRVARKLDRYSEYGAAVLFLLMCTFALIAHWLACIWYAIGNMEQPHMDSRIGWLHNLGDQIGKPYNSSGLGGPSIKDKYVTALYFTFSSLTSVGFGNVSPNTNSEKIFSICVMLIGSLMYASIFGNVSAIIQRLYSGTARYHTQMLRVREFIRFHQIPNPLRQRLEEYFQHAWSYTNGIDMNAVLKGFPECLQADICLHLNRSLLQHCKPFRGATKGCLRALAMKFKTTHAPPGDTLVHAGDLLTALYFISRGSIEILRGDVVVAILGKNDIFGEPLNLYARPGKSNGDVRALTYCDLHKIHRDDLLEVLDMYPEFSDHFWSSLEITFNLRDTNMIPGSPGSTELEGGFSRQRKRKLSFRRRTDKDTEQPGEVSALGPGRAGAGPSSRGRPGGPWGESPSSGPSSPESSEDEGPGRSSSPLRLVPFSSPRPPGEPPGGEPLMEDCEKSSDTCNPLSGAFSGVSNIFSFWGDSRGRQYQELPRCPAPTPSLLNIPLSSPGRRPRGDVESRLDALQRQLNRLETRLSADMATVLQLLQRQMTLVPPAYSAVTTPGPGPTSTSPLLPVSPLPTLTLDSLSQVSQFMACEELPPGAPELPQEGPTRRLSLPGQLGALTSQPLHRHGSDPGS

SMILES	hERG current change (%, negative = inhibition) at 10uM
CNC(=O)c1ccsc1NC(=O)CCS(=O)(=O)c1ccc(C)cc1	-1.91%
Nc1c2c(nc3c1CCC3)CCCC2	-0.974%
Cc1ccc(CCNC(=O)C2=CCN(S(=O)(=O)c3ccccc3)CC2)cc1	-30.7%
Cc1cc(F)ccc1NS(=O)(=O)c1cccc2nsnc12	-6.94%
N#C/C(=C\c1cc(Cl)ccc1O)C(=O)NC1CCCCC1	-2.17%
CCN(CC)S(=O)(=O)c1cccc2c(N(C)C)cccc12	-35.6%
Cc1ccc(OC2=NS(=O)(=O)c3ccccc32)cc1	6.41%
CC(C)(C)c1ccc(CN2C(=O)CN=C(c3ccccc3)c3ccccc32)cc1	-1.16%
Cc1noc(C)c1NC(=O)NC(c1ccccc1)c1ccccc1	-11.3%
CC(=O)N1CCN(C(=S)NC(=O)c2c(-c3ccccc3Cl)noc2C)CC1	6.07%
Cn1ncc(Cl)c(Oc2ccc(Cl)cc2)c1=O	-17%
CC(C)CN1CCNC(=O)C1CC(=O)NCc1cnn(-c2cccc(F)c2)c1 (stereo not drawn)	19.2%
Cc1cc(C(=O)COc2ccc(C#N)cc2)c(C)n1-c1ccc2c(c1)OCO2	-16.7%
COc1ccccc1NC(=O)CSc1nc2sc(C)c(C)c2c(=O)n1Cc1ccco1	8.79%
O=C(N/N=C/c1cccnc1)c1cccc(NC(=O)c2ccc(Cl)cc2)c1	19.3%
O=C(Cn1c(N2CCN(c3ccccc3)CC2)nc2ccccc21)c1ccccc1	-16.1%
Cc1cccc(NC(=O)CCN2C(=O)c3ccccc3C2=O)n1	3.15%
CCOc1c(C=C(C#N)C#N)c2ccccc2n1CC	4.25%
O=C(NCC1CCCO1)c1cc2c([nH]c3ccccc32)c(-c2cccc(Cl)c2)n1 (stereo not drawn)	-20.5%
CCC(C)NC(=O)Cn1nc(C(F)(F)F)c2c1CCC2 (stereo not drawn)	1.83%
CCN(CC)S(=O)(=O)c1ccc(C(=O)O)cc1	20.3%
Cc1cc[n+](-c2[nH]c(=O)sc2/C=N/N=C(\[O-])c2ccncc2)cc1C	3.74%
Cc1cc(C)cc(CC(CC(=O)Nc2ccc(Cl)cc2)C(=O)O)c1 (stereo not drawn)	18.3%

SMILES	hERG current change (%, negative = inhibition) at 10uM
Cc1cccc(C(=O)N/N=C/c2ccc3c(c2)OCO3)n1	-13.9%
O=C(Nc1ccc(N2CCN(C(=O)c3cccs3)CC2)cc1)c1ccc(F)cc1	-15.3%
CC(C)c1c(CN(C)C(C)Cc2ccccc2)n(C)n(-c2ccccc2)c1=O (stereo not drawn)	0.117%
CCc1ccc2[nH]c(=O)c(CN(CCN3CCOCC3)C(=O)Nc3ccccc3F)cc2c1	-23.1%
OCc1cccc[n+]1Cc1ccccc1.[Cl-]	8.35%
CSc1nsc(SC)c1C(=O)Nc1ccc(C(C)(C)C)cc1	7.74%
Cc1ccc(S(=O)(=O)N(C)Cc2nc(-c3ccncc3)no2)cc1	-19.5%
Cc1cccc(C(C)n2nnc3ccccc32)c1O (stereo not drawn)	6.31%
COc1cc(C(=S)N2CCCC2)ccc1O	18.6%
CC(Oc1cccc(Cl)c1)C(=O)NCCCCc1ccccc1 (stereo not drawn)	-11.1%
CN(C)/C=N/c1sc2c(c1C#N)CCC2	-3.93%
CCNCc1nc2cc(OC)c(OC)cc2c(=O)[nH]1	-14.6%
O=c1[nH]c(O)c(C=NC2CCN(Cc3ccccc3)CC2)c(=O)[nH]1	-31.6%
Nc1c(C(=O)NCCN2CCOCC2)c2nc3ccccc3nc2n1-c1cccc(F)c1	-33.2%
CC(=O)Nc1ccc(NC(=O)[C@@H](NC(=O)c2cccc(C)c2)C(C)C)cc1	11%
O=C(NC1c2ccccc2-c2ccccc21)c1ccco1	-8.29%
COc1ccc(CN(C)Cc2c(O)ccc3cc(Br)ccc23)cc1OC	-37.3%
CC1CCN(S(=O)(=O)c2ccc3c(ccn3CC(=O)O)c2)CC1	14.6%
Cc1nn(C(C)C(=O)NC2CCCCC2)c(=O)c2nn(-c3ccccc3)c(C)c12 (stereo not drawn)	-26.7%
CCOC(=O)CNC(=O)CSc1nc(NCc2ccccc2)nc(N(C)C)n1	-13.8%
Cl.c1ccc2c(c1)nc1n2CCN1CCN1CCCC1	-3.08%
O=C(O)c1n[nH]c2c1CCCCC2	-23.2%
COc1cccc(NC(=O)N2CCCC2C(=O)NCc2ccccc2)c1 (stereo not drawn)	6.71%

SMILES	hERG current change (%, negative = inhibition) at 10uM
Cc1cccc(-c2nc(CS(=O)CC(=O)NC3CCCC(C)C3C)c(C)o2)c1 (stereo not drawn)	-0.417%
NC(=O)c1cccnc1Oc1cccc(Cl)c1	11.8%
O=C(O)CSc1cc(C(=O)c2ccccc2O)cn2c(=O)c3c(-c4ccccc4)csc3nc12	-1.71%
CCOC(=O)c1c(N)sc(C(=O)N(C)C)c1C	16.6%
O=C(O)CCNc1ccc(NCCC(=O)O)c2c1C(=O)c1ccccc1C2=O	27.8%
Nc1cc(OC(=O)c2cccs2)nn1S(=O)(=O)c1ccc(F)cc1	-4.68%
Cc1ccccc1CC(=O)Nc1ccc2c(c1)CCC2	18.3%
O=C(NCC1CC1)c1onc(CSc2ccc(F)c(F)c2)c1C(=O)NCC1CC1	-56.1%
COc1ccc(C(=O)NC2CCSc3ccccc32)cc1S(=O)(=O)N1CCOCC1 (stereo not drawn)	-9.95%
CCOc1ccc(S(=O)(=O)NCC2CCCO2)cc1NC(=O)c1ccccc1F (stereo not drawn)	19.7%
Cc1ccc2nc(N(CCCN(C)C)C(=O)c3ccc4c(c3)CCCC4)sc2c1.Cl	-71.5%
COC(=O)c1ccccc1NC(=O)C(=O)NCC1CCCO1 (stereo not drawn)	4.61%
CNC(=O)NC(=O)COC(=O)CCCSc1nc2ccccc2s1	2.63%
COc1ccc(OC)c(NC(=O)CSc2nc3scc(C)c3c(=O)[nH]2)c1	17.9%
Cn1ccnc1SC(C(=O)O)c1ccccc1 (stereo not drawn)	8.77%
COc1ccccc1N/C=C(\C#N)c1nc2ccccc2[nH]1	15.8%
O=C1N=C(N2CCOCC2)S/C1=C\c1cccnc1	-0.945%
CCOC(=O)N1CCC(N(CCN(C)C)C(=S)Nc2cccc(Cl)c2C)CC1	12.5%
CC(=O)OC(C)CS(=O)(=O)c1ccccc1 (stereo not drawn)	15.1%
CC1CCCC(NC(=O)COC(=O)c2ccc3ccccc3n2)C1C (stereo not drawn)	-5.68%
O=C1NC2(CCC3(CC2)OCCO3)NN1c1ccc(Cl)cc1	-0.699%
Cc1cccc(NC(=O)CN2CCCN(S(=O)(=O)c3ccc(Br)s3)CC2)c1	-19.8%
Cc1ccc(NC(=O)COC(=O)CCc2nc3ccccc3n2-c2ccccc2)c(C)c1	18.4%

SMILES	hERG current change (%, negative = inhibition) at 10uM
COc1ccc(C2NS(=O)(=O)OCC2C)cc1 (stereo not drawn)	16.4%
Cc1ccc(-c2ccc(=O)n(CC(=O)NCCCN3CCCCC3C)n2)cc1 (stereo not drawn)	-10.3%
CN(C)CCCC1(O)c2ccccc2C=Cc2ccccc21	-2.07%
Cc1cc(C)cc(N(CC(=O)NCc2ccc(F)cc2)C(=O)c2snc(C(N)=O)c2N)c1	9.77%
Cn1c(=O)c2c(ncn2CC(=O)Nc2ccccc2Sc2ccccc2)n(C)c1=O	-8.95%
Cc1cccc(OCC(=O)NCCNC(=O)c2cccnc2)c1	17.1%
C/C(=N\NC(=O)c1nnn(-c2nonc2N)c1-c1ccccc1)c1ccco1	15%
Cc1cccc(N2CCN(C(=O)CCCn3c(=O)[nH]c4ccsc4c3=O)CC2C)c1 (stereo not drawn)	-3.95%
Cc1ccc(NC(=O)C2CCCN2C(=O)NC2CCCCC2)c(C)c1 (stereo not drawn)	11.7%
Cc1ccccc1-n1nc(C)c2cc(C(=O)NCc3cccnc3)sc21	-31%
Cc1ncc(CO)c2c1Oc1nc(-c3ccccc3F)nc(SCC(=O)N(C)c3ccccc3)c1C2	14.2%
O=C(CN1C(=O)C2CCCCC2C1=O)Nc1cccc([N+](=O)[O-])c1 (stereo not drawn)	-13.3%
N#Cc1cc(C(=O)c2ccccc2OCC(=O)Nc2ccccc2Cl)cn(C2CCCCC2)c1=O	-24.5%
COc1ccc(/C=C/C(=O)OCC(=O)Nc2cccc(Oc3ccccc3)c2)c(OC)c1	7.56%
CC(=O)c1ccc(NC(=O)CN2CCCC2)cc1	8.04%
CCOC(=O)Cc1cnc(NC(=O)CSc2nc(C(C)C)cc(=O)[nH]2)s1	8.86%
COc1cc(/C=C/C(=O)OCC(=O)NC(=O)NC2CCCCC2C)ccc1OC(F)F (stereo not drawn)	7.03%
NS(=O)(=O)c1cccc(NC(=O)CC(NC(=O)c2ccccc2Cl)c2ccccc2)c1 (stereo not drawn)	6.92%
O=C(CSc1n[nH]c(Cc2ccccc2)n1)Nc1ccccc1Br	-8.28%
Cc1ccc(SCC(=O)N(Cc2nc(-c3ccccc3)no2)C(C)C)cc1	-0.577%
CN(C)c1ccc(CN(C(=O)/C=C/c2ccco2)C2CCS(=O)(=O)C2)cc1 (stereo not drawn)	10.3%
